Measured values as given in publication PMC4336329 (PLoS ONE, 2015).
The whole screen tested about 310,000 compounds, of which about 2,200 (0.71%) showed an effect of 50% or more. The effect is printed as a negative number. This is one part of the list.

What follows are compounds tested against human ether-à-go-go-related gene (hERG) potassium channel (human, UniProt Q12809) (assay: primary screen, population patch clamp on CHO cells stably expressing hERG).
human ether-à-go-go-related gene (hERG) potassium channel, sequence (Q12809 whole entry, looked up): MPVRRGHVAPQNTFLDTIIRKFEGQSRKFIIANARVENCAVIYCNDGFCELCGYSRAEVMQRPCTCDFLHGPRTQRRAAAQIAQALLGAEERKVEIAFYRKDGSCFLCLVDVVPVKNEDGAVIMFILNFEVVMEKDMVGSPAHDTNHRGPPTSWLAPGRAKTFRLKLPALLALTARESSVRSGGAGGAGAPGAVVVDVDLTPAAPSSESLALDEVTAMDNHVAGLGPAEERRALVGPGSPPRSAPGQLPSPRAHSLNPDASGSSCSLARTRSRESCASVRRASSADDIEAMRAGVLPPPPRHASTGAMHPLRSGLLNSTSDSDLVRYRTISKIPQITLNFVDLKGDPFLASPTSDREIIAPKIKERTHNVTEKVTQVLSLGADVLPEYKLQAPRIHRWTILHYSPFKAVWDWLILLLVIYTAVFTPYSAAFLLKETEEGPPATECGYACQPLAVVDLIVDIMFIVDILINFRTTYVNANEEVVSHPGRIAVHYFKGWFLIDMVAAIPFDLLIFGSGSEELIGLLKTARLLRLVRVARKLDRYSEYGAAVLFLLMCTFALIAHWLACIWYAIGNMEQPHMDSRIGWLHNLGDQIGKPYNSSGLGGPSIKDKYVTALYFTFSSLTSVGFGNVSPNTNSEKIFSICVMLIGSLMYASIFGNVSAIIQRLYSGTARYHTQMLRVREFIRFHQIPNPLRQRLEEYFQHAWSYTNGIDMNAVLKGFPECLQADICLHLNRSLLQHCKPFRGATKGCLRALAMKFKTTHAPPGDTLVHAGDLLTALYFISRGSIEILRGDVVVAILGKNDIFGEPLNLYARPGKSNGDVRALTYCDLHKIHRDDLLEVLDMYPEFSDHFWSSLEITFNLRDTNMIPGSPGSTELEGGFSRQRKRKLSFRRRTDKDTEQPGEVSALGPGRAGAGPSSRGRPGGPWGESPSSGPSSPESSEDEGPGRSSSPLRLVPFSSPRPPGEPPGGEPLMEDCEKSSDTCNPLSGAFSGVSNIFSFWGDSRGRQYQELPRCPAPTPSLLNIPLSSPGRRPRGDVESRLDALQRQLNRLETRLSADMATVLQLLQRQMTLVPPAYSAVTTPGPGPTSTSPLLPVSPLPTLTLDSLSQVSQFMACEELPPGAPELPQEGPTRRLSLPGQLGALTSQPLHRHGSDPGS

Compound	hERG current change (%, negative = inhibition) at 1uM
Cc1ccc(N2C(=O)NC(=O)C(CCc3ccncc3)(Cc3cccc(Cl)c3Cl)C2=O)cc1 (stereo not shown)	11.1%
CCOC(=O)c1[nH]c(C)c(CN(C(C)=O)c2ccc(OCC)cc2)c1C	13.5%
C=CCn1c(SCc2c(C)noc2C)nc2sc3c(c2c1=O)CCCCC3	2.05%
COc1ccc(Nc2nc3ccccc3c(=O)s2)c(OC)c1	4.21%
Cc1ccccc1Cn1c(O)c(N=NC(=S)Nc2ccccc2F)c2ccccc21	2.06%
CCN=c1scc(-c2ccco2)n1/N=C/c1ccc(O)cc1	8.56%
O=[N+]([O-])c1ccc(COc2ccccc2/C=N/O)cc1	4.68%
COc1ccc(NC(=O)Cn2ncc(Cl)c(Cl)c2=O)cc1S(=O)(=O)N1CCOCC1	9.62%
CCn1c2ccccc2c2cc(NC(=O)COc3ccc(OC)cc3)ccc21	11.4%
Cl.NC(N)=NC(=O)Cc1c(Cl)cccc1Cl	16.4%
CCOc1ccccc1N/C=C/C(=O)C(C)(C)C	13.8%
Cc1ccccc1OCCNC(=O)/C=C/c1ccc([N+](=O)[O-])cc1	-7.72%
NS(=O)(=O)c1cc(C(=O)NC2CCSc3ccccc32)ccc1Cl (stereo not shown)	8.25%
COc1ccc(OC)c(C2=Nn3c(nnc3-c3ccncc3)SC2)c1	1.61%
CN(C)CCN=Cc1c(O)n(Cc2ccco2)c(=O)[nH]c1=O	10.3%
COc1cccc(-c2cc(C(F)(F)F)nc(N3CCC(C)CC3)n2)c1	6.81%
O=c1cc(CO)oc(C(Nc2ccccn2)c2ccc(F)cc2)c1O (stereo not shown)	7.78%
CCS(=O)(=O)Nc1cccc(C2=NN(S(=O)(=O)c3ccccc3)C(c3ccco3)C2)c1 (stereo not shown)	8.57%
CC(C)CCC[C@@H](C)[C@H]1CC[C@H]2[C@@H]3C(=O)C=C4C[C@@H](O)CC[C@]4(C)[C@H]3CC[C@]12C	7.94%
C=CCN1C(=O)c2ccccc2NC1c1cc(Br)cs1 (stereo not shown)	6.74%
Cc1nn(C)c(C)c1CCC(=O)N1CCCC(C(=O)c2cccc(OC(C)C)c2)C1 (stereo not shown)	13.6%
COC(=O)c1cc(C(=O)c2cc(F)ccc2O)cn2c(=O)c3c(C)c(C)sc3nc12	15.2%

Compound	hERG current change (%, negative = inhibition) at 1uM
Cc1cc(NC(=O)c2ccc(-c3ccccc3F)o2)no1	2.14%
COc1ccc(C(=O)Nc2ccccc2C(=O)N2CCCCCC2)cc1	-4.15%
COc1cccc2cc(C(=O)Nc3ccc(S(=O)(=O)NCC4CCCO4)cc3)c(=O)oc12 (stereo not shown)	9.6%
N#Cc1ccccc1S(=O)(=O)N1CCN(CC(O)CN2CCOCC2)CC1.O=C(O)C(=O)O (stereo not shown)	-3.23%
C=CCc1cc(OC)ccc1OCC(O)CN1CCN(c2ccc(OC)cc2)CC1 (stereo not shown)	-27.1%
O=C(OCN1C(=O)c2ccccc2C1=O)c1ccco1	4.36%
O=C(COC(=O)c1ccc([N+](=O)[O-])s1)Nc1ccccc1	2.64%
O=C(CC12CC3CC(CC(C3)C1)C2)N1CCCC1	13%
CCCN1C(=S)c2ccccc2C1c1ccccc1 (stereo not shown)	10.1%
Cc1ccccc1-n1c(N)cc(=O)[nH]c1=S	15.6%
Cc1ccc(CCN2CC(C(=O)N3CCC4(CC3)OCCO4)CC2=O)cc1 (stereo not shown)	9.61%
CNC(=O)c1c(Cl)cnn1-c1ccccc1	10.5%
O=c1[nH]c2ccccc2c(=O)n1-c1ccc(Cl)cc1Cl	3.26%
CC(Sc1nnc(Nc2ccccc2)s1)C(=O)NC1CCCc2ccccc21 (stereo not shown)	8.67%
C/C(=N\N=C(c1ccccc1)c1ccccc1)c1ccco1	5.46%
CC1(C)Cc2c(cnn2-c2ccc(F)cc2)C(NC(=O)CN2CCCC2=O)C1 (stereo not shown)	11.4%
CN1CCN(C(=S)Nc2ccccc2Cl)CC1	8.28%
O=C(CN1c2ccccc2Sc2ccccc21)NNC(=S)Nc1ccc(Cl)cc1Cl	6.37%
Cc1ccc(S(=O)(=O)N2CCN(Cc3nnc(-c4c(-c5ccccc5)noc4C)o3)CC2)cc1	-13.8%
CCOC(=O)c1sc(-c2ccc(Cl)cc2)nc1O	6.13%
O=C(Cn1nc2n(c1=O)-c1ccccc1SC2)N/N=C/c1cccs1	13.3%
O=S(=O)(NCc1ccc2c(c1)OCO2)c1ccc(F)cc1	4.07%

Compound	hERG current change (%, negative = inhibition) at 1uM
COC(=O)c1ccc(NC(=O)c2ccccc2NS(=O)(=O)c2ccccc2)cc1	16.5%
COc1ccc(/C=C/c2nc(-c3ccccc3O)n[nH]2)cc1	0.893%
CCOc1cc(C(=O)N2CCC3(CC2)NCCc2[nH]cnc23)cc(OCC)c1OCC	19.1%
CCOc1ccc(S(=O)(=O)NC2=NCCCCC2)cc1	21.5%
Br.COc1ccc(-c2cn3ccccc3n2)cc1OC	4.44%
Br.CCn1c(=N)n(CC(=O)c2ccc(OC)c(OC)c2)c2ccccc21	-2.14%
Fc1cccc(NC(=S)N2CCc3ccccc32)c1	13.3%
O=[N+]([O-])c1ccc(Sc2n[nH]c(-c3ccc(Cl)cc3Cl)n2)nc1	1.2%
Cc1ccc(S(=O)(=O)N2[C@@H](c3cccc(Cl)c3)C(C(=O)O)=CC[C@H]2c2cccs2)cc1	14.9%
CC1CCN(c2ncccc2C(=O)O)CC1	-3.9%
COc1ccc(C)cc1-n1nnnc1SCC1CCCCO1 (stereo not shown)	2.96%
O=C(CSC1=NC(=O)C(Cc2ccccc2)C(=O)N1)NC1CCCCC1 (stereo not shown)	13.5%
COc1ccc(C(=O)c2c[nH]c(C(=O)NCc3cccnc3)c2)cc1	-6.26%
COc1ccc(-c2csc3ncnc(N4CCN(c5ccccc5Cl)CC4)c23)cc1	14.8%
COc1ccc(Cl)cc1C(=O)NC(=S)Nc1nc(C)cc(C)n1	17%
COc1cccc(C2c3c(-c4ccccc4O)n[nH]c3C(=O)N2Cc2ccco2)c1 (stereo not shown)	0.477%
Cc1sc2ncn(CC(=O)N(CC(=O)NC3CCCC3)Cc3cccs3)c(=O)c2c1C	-3.65%
Cn1cccc1-c1nc2ccc(NC(=O)c3ccco3)cc2[nH]1	-3.04%
COc1ccc(C(=O)N/N=C(\C)CC(=O)Nc2ccc3ccccc3c2)c(OC)c1	16.7%
COc1ccc(CC(=O)OCn2nnc3ccccc3c2=O)cc1OC	7.17%
NC(=O)CCCSc1nc2ccccc2[nH]1	14.3%
COc1ccc(OCC(O)CNC(C)c2ccccc2)cc1.Cl (stereo not shown)	9%

Compound	hERG current change (%, negative = inhibition) at 1uM
NS(=O)(=O)c1ccc(NNC(=O)c2ccccc2)cc1	12.6%
O=C(c1ccco1)N1CCN(C(=O)c2ccccc2NS(=O)(=O)c2ccc(F)cc2)CC1	-2.06%
NC(=O)NC(=O)COC(=O)c1cccc(S(=O)(=O)N2CCCCCC2)c1	12.3%
O=C(COC(=O)C1CCN(S(=O)(=O)c2cccc3cccnc23)CC1)c1ccc([N+](=O)[O-])cc1	8.06%
CCOC(=O)c1[nH]c2ccc(OC)cc2c1NC(=O)CN1CCC2(CC1)OCCO2	14%
CCN(CC)CCNC(=O)CCc1n[nH]c(=O)c2ccccc12	-1.65%
CC(C)C(=O)Nc1ncc(Cc2ccccc2Cl)s1	10.9%
Cc1cccc(-c2nc(CS(=O)CC(=O)NCc3ccco3)c(C)o2)c1 (stereo not shown)	9.61%
O=C(NCC(=O)N(CC1CCCO1)C(C(=O)NC1CCCCC1)c1ccccc1)c1ccco1 (stereo not shown)	7.75%
Cn1c(=O)c(-c2cc(Br)ccc2N)nc2ccccc21	6.48%
c1ccc(Cc2nn3c(COc4ccccc4)nnc3s2)cc1	3.84%
CN(c1c(C#N)c(C(F)(F)F)nn1C)N(S(C)(=O)=O)S(C)(=O)=O	13.2%
Cc1nn(Cc2ccc(C(=O)NC(C)(C)C)o2)c(C)c1Br	11.1%
CC1(C)C(c2ccccc2)=NC(c2ccc(Br)cc2)N1O (stereo not shown)	-3.69%
CC(=O)Nc1ccc(S(=O)(=O)NCCC(=O)Nc2ccc(C)c(F)c2)cc1	2.99%
O=C(c1ccco1)N1N=C(c2ccc(Cl)cc2)CC1(O)C(F)(F)F (stereo not shown)	9.8%
CCOC(=O)C1=C(C(F)(F)F)Nc2ncnn2C1c1cc(OC)ccc1OC (stereo not shown)	8.11%
Cc1ccc(Nc2ncc3c(n2)CC(C)(C)CC3=O)cc1	9.35%
Cn1c(NC(=O)c2ccco2)c(-c2ccccc2Cl)c(=O)c2ccccc21	-6.42%
COc1ccc(CCC(=O)Nc2cccc(S(=O)(=O)N3CCCCCC3)c2)cc1OC	4.98%
NC(=O)c1ccc(NC(=O)COC(=O)CCCN2C(=O)c3cccc4cccc(c34)C2=O)cc1	10.5%
O=C1Oc2ccccc2C(=O)/C1=C/N1CCN(c2ccccc2F)CC1	7.34%
